For one molecule, growth results are on record in PubChem BioAssay (NCI).

The test has as its system A549/ATCC NSCLC. Nature of the test: NCI-60 one-dose screen, 48 h (100 = growth as untreated, 0 = no growth, -100 = all killed).

Some compounds were tested as several samples or in several runs, with calls that do not always agree.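 A percent growth of 40 corresponds to 60% growth inhibition; 0 means no net growth; -100 means all cells died. Active threshold: below 10.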 Not every entry of the source has a single result; some have several. This list holds those alone. An entry can have further records. This drug was run again and again over the years, at its own concentration, as given; one value stands for one run. Signs of the kind (2×) say how often a value occurs here.

Take `COc1cccc2c1C(=O)c1c(O)c3c(c(O)c1C2=O)C[C@@](O)(C(=O)CO)C[C@@H]3OC1CC(N)C(O)C(C)O1` (stereo not given in full): the growth entry reads like this: (0.25 µM, runs of 2012) “inactive: 34.8 (2×), 28.4, 32.7 (2×), 32.3, 33.2, 33.1 (3×), 33.6 (2×), 33.3 (2×), 35.4 (2×), 28.3, 27.1, 29.1, 31.8 (2×), 33.9, 32, 29.2, 29.9, 36.2 (2×), 29, 30.9 (2×), 31, 34.5, 38.2, 36.3 (2×), 35.1, 33, 37.1, 37.3, 32.6, 31.1, 34.3 (3×), 35.2 (2×), 38.5, 26.6, 24.3, 37.7 (2×), 34.6, 36.6 (2×), 45.4, 40.7, 38.1, 37.6, 34.9, 37.2, 30, 31.9, 34.2, 31.2, 40.1, 28.2, 37.4, 32.9, 31.5%”; (0.25 µM, runs of 2013) “inactive: 31.9, 34.1 (2×), 34.6, 30, 35.3 (2×), 33.3, 40.4, 33, 33.6, 32.3, 39.9 (2×), 36.8 (2×), 42.5, 34.9, 37.2, 39.3 (2×), 34, 32.9, 38.3 (4×), 33.5 (2×), 38.1, 32.7, 37.1 (2×), 37.7 (2×), 36.3, 37.3 (2×), 42.6, 41.9, 46, 37.9, 33.1, 34.3, 41.6, 40.1, 37.5 (2×), 36.9, 39.1 (2×), 33.9 (2×), 38.2, 34.8 (2×), 40.8, 38.7, 36.6 (2×), 30.2 (2×), 24.7, 40, 30.8, 35.8, 34.5, 31.2, 35.2%”; (0.25 µM, runs of 2014) “inactive: 39.2, 40.7 (2×), 37.2, 34.8, 37.5 (3×), 44.9 (2×), 36.2, 33.3 (3×), 31.9, 33 (2×), 33.5, 36.4 (2×), 37.7, 36.9 (2×), 37.3, 38.9 (2×), 37.6, 40.1, 42.9, 38.8, 42.4, 38.7 (2×), 38.5, 41.8, 42.3, 43.1, 43.3, 45.9, 43, 45.8, 43.8, 47.8, 45.1, 41.7, 37, 39, 36.8 (2×), 33.7, 43.5, 32 (2×), 40.6, 31.2, 34.4, 32.2, 36.5, 35.4 (2×), 34.3, 33.9, 26.2, 31.3, 35.8, 30.4, 27.8, 29.6, 30, 28.4%”; (0.25 µM, runs of 2015) “inactive: 39.8, 33.4, 30.7 (2×), 38.2 (2×), 32.9, 30.1, 33.1, 36.6, 34.1, 33.9, 32.1 (2×), 36.2 (3×), 40 (2×), 35.2 (2×), 35.1 (3×), 31.4 (2×), 34.8 (2×), 33.7 (3×), 28.4, 37.5, 28.8, 32 (2×), 31.5, 29.6, 31.8, 28.6, 29.8, 36.5 (3×), 36.4, 34.3, 34.4, 35.3 (2×), 37.7, 36.8 (3×), 31.2, 30, 35.8, 28.9, 28.2, 33.3, 31.6, 34, 36.9, 25.5, 33 (2×), 36.3, 38.1, 41.9, 31.7, 40.7, 39.3, 37.1, 42.4, 37.8, 37.3, 37, 38.8, 37.2, 39.2, 39.9%”; (0.25 µM, runs of 2016) “inactive: 36.2 (2×), 32.1, 33.3, 37.8, 42.6, 34.6 (2×), 41.9, 38.5 (4×), 37.7 (2×), 39 (2×), 37, 34.1, 27.2, 35.4 (2×), 33.9, 45, 34.5, 34.8, 32.3, 35.3, 35.2, 39.2 (3×), 25.4, 37.5, 36.6, 31.8, 36.3 (2×), 36.9 (3×), 35.1 (2×), 37.4 (2×), 35.8, 37.6, 35.9, 40.4, 34.9, 38.2 (2×), 40.8, 36.4, 38.7, 37.3 (2×), 37.1 (2×), 38.1, 38.3 (2×), 37.2 (2×), 38.8, 34.4, 42.9, 40.2 (2×), 42.4, 46.6, 44.9, 42.5, 44.3, 44.2, 40.3, 39.9, 39.3, 37.9%”; (0.25 µM, runs of 2017) “inactive: 42.8, 41.8 (2×), 37.1, 40.1, 35.2, 32.9, 35.9, 32.3 (2×), 39.3 (2×), 40.2, 40.7, 36.3 (3×), 37.4, 33.6 (3×), 33.2, 33.4, 31.5 (2×), 38.2 (2×), 30.3, 36.8 (2×), 30.6, 37.3 (2×), 38.1, 37.2, 39 (2×), 36.6 (2×), 33.5, 32.4 (2×), 37.7, 34.6 (3×), 36.5, 31.8, 39.1, 39.2, 33, 40.3 (2×), 32.2, 32.6, 35.4, 30, 37.8, 34.3, 33.1, 40.6, 35.8, 30.9, 29.3, 42.4, 32.5, 32, 31.7, 33.9%”. The growth entry by setting is: (0.25 µM, runs of 2018) “inactive: 36.9, 32.1, 32.9 (3×), 30, 40.3, 41.6, 36.2, 35.1 (2×), 34.2, 39.2, 37.3, 37.2 (2×), 38.7, 40, 38.8, 37.4, 38.6, 42.7, 37.1 (2×), 35.2 (3×), 33.9, 32.2, 39.1, 34, 34.1 (2×), 33.7, 34.8, 35.3, 35.6, 38.3, 31.6, 31.5, 36.4, 29.9, 27.9, 34.4, 29.3, 33.5, 25.9, 31.9%”; (0.25 µM, runs of 2019) “inactive: 37.9, 31.3 (2×), 36.5 (2×), 33.3, 34.4 (2×), 40.1, 32.4 (2×), 35.6, 39, 34.5 (3×), 36.9, 31.9 (2×), 40.3, 38.8, 36.8, 35.4 (2×), 33 (2×), 36.6, 37.8, 38.1, 34.8, 30.9, 41.9, 44.2, 39.8, 32.8, 34.1 (2×), 31.2, 33.9, 34, 35.3, 32.9, 29.6, 30.4, 30.8, 33.6 (2×), 37.5, 33.2, 32.7%”; (0.25 µM, runs of 2020) “inactive: 33.4, 35.4 (2×), 31.8, 36.9 (2×), 32.4, 36.6 (2×), 34, 35.1 (2×), 33.8, 32.7, 39.9, 38.9, 40.6, 38.7, 37.6 (2×), 37.8, 39, 38.6%”; (0.25 µM, runs of 2021) “inactive: 38.2 (2×), 38.1, 36.6, 37.4, 38.3 (2×), 34.8 (2×), 39.2 (2×), 36.8 (2×), 35.8, 37.6, 32.6, 34.4 (2×), 35.4 (3×), 37.1 (2×), 35.6, 32.8, 33.9, 34.1, 34.5, 37.8, 32.2, 35.9, 37.7, 35.2, 37.5, 33.1, 31.2 (3×), 38.8, 41.4, 30.9, 32.9, 36.4, 31, 32, 42.7, 42.6%”; (0.25 µM, runs of 2022) “active: -20.6%, -12.6%, -6.16% and inactive: 33.6, 35.1, 37.1, 20.4, 37.9, 42.5, 30.5, 43.1, 42.8, 35.4, 36.5, 37, 33.2, 50.3, 55.8, 48, 46.8, 50, 40.6, 37.7, 33.1, 37.6%”; (25 µM, runs of 1991) “active: 0.914, 6.49, 3.6, 0.264, 0.57, 0.735, -7.07, -5.56, -3.64, 8.83, 2.39, -18.4, 1.55, 8.41, 1.88, 2.65, -16.5, -0.901%”. Also, the growth entry was “active: -10.6, -16.1, 1.02, 3.23, -16, -8.4, -8.93, 3.59, -25.7, -19.1, 4.24, 2.17, 2.88, -17.5, -22.6, 3.82, 6.57, 6.15, 7.86, -11.6, 5.98, 1.11 (2×), 5.02, 3.95, -6.84, -8.35 (2×), -0.118, -4.12, 0.42, -28.3, -62, 2.16, 0.139, 3.02, -4.11, 5.06, 3.93, 0.704, 1.8 (2×), 6.91, -12.8, -7.56, -17.6, -0.307, 6.07, 2.84 (3×), 6.82, -32.4, -2.88, 6.58, 9.01, 0.671, 3.11, 0.612, -17.3, 8.47, -34.3, 0.0754, -1.26, 7.26, 4.33, 3.67, 5.14, 2.5, -9.95, 3.08, 2.37, -3.12, -11.8, -26, -21.6, 9.06, 2.02, 5.44, 1.86, -2.7, 1.88, -7.24, 4.02, 0.992, -1.61, 1.49, -6.99, 9.79, -1.72, 2.94, 3.94, 1.45, -0.526, -7.17, -18.8, -11.3, -9.92, 7.12, 5.25, 0.514, -4.55, 2.18, -5.06, 9.77, 2, 2.98, -27.8, 3.88, -12.3, 1.08, 2.28, 0.247, 2.23, -2.79, 0.893, 2.13% and inactive: 15.7, 10, 10.7, 16.4%” (25 µM, runs of 1992); “active: -17.1, 9.4, 3.17, 2.66, -10.9, 6.98, 9.74, 7.02, -8.8, 5.57, -0.692, 2.95, 8.86, 9.56, 4.39, -1.37, 5.93, -10.1, 0.201, -4.06, 4.68, 2.62, 2.67, 5.22, 9.2, 1.91, 0.061, -35.4, 3.35, 3.9, 6.44, -13.7, 6.24, 3.96, -7.4, -2.38, 3.21, -3.55, 3.65, -30.4, 3.56, -13.3% and inactive: 13.8, 12.3, 10.5, 10.2, 13.7, 10.1%” (25 µM, runs of 1993); “active: 3.51, -9.54, -2.81, 5.36, 2.84, 2.92, -20.9, -8.23, 4.44, -11, -15.3, 2.73, 3.9, -16.8, -2.01, 4.36, -3.77, 0.398, -14.3, 6.72, 3.53, 1.87, -1.08, 7.89, 8.19, 4.2, -3.15, 4.64, 6.27, 4.03, 5.95, -4.89, 1.73% and inactive: 92.8%” (25 µM, runs of 1994).
